Results: PubChem BioAssay AID1645882 (National Center for Advancing Translational Sciences (NCATS), 2021)
Several values for one entry are separate records, joined by “and”; a condition that tells them apart may be missing. Equal entries are not always repeated. About 120 (0.75%) of roughly 16,000 compounds were called active. Inconclusive results, whose numbers are uncertain, are shown with a selection of clear calls. Calls come from the whole dose curve; as a rule, active = well fitted inhibition curve with a large enough effect; inconclusive = small, poorly fitted or top-dose-only effect; inactive = no such curve, though single readings can be large or run the other way. Where the call is inconclusive, the potency comes from a doubtful curve fit.

Each compound was assayed against Rap guanine nucleotide exchange factor 3 (Homo sapiens) (UniProt O95398) (assay: Validation qHTS for antagonist of cAMP-regulated guanine nucleotide exchange factor 3 (EPAC1)). Settings: EPAC1 Rap1B-BODIPY-GDP exchange, fluorescence; activity change, negative = inhibition: at 150 µM (top of the series).
UniProt O95398, sequence (O95398 whole entry, looked up): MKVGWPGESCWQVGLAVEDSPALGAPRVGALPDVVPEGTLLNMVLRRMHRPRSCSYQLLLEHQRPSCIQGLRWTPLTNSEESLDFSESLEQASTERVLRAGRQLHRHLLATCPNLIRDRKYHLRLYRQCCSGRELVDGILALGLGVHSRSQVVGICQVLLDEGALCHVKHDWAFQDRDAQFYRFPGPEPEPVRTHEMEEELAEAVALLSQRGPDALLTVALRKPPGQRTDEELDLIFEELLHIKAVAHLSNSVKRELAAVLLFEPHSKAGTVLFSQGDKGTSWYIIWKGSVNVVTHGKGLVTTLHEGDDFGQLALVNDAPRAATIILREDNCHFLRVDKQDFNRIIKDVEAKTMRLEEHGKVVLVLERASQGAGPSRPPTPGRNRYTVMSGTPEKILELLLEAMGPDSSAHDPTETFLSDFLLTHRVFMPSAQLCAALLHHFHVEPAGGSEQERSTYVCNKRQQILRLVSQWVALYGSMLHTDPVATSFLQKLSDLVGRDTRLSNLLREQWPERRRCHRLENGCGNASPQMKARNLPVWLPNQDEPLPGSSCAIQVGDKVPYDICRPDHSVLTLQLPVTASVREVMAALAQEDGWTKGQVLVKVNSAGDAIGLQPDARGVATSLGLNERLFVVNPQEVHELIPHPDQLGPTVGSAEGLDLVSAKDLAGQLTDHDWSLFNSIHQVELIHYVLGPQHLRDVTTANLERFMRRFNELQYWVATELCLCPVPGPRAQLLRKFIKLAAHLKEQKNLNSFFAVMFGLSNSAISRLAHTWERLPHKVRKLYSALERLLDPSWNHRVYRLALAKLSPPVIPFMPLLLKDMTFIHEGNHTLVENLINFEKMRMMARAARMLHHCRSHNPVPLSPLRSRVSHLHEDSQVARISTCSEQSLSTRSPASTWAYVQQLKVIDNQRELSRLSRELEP
Procedure, shortened: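 Nucleotide exchange followed as fluorescence loss when BODIPY-GDP leaves Rap1B (480 nm excitation, 540 nm emission), read at 5 min intervals over 30 min. Reaction: 100 nM EPAC1, 250 nM RAP1B-BODIPY-GDP, 50 uM GDP; ATA and DMSO define normalization.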
Note: nearly all actives have a fitted effect of over 75% in size.
Potency is the fitted concentration of half-maximal effect; tags give direction and shape of the fitted curve.
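Throughout, for activity change, negative = inhibition: plate controls were DMSO for no effect and ATA control for full effect.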

SMILES	Potency	activity change, negative = inhibition
CCCCCC/C=C\CCCCCCCc1cccc(O)c1C(=O)O	inconclusive: 100 µM [inhibitor, partial curve]	
O=C(Nc1ccc(C(=O)Nc2ccc(C(=O)Nc3ccc(S(=O)(=O)O)c4cc(S(=O)(=O)O)cc(S(=O)(=O)O)c34)cc2)cc1)Nc1ccc(C(=O)Nc2ccc(C(=O)Nc3ccc(S(=O)(=O)O)c4cc(S(=O)(=O)O)cc(S(=O)(=O)O)c34)cc2)cc1	active: 39.8 µM and active: 8.91 µM	
COc1cc(OC)c(OC)cc1CN1CCC(n2cc(C(=O)N3CCCCC3)nn2)CC1		inactive: 4.84%
Oc1ccc(Cl)cc1Cc1cc(Cl)ccc1O	inconclusive: 63.1 µM [inhibitor, partial curve, poor fit]	
COC(=O)[C@@H](CC(C)C)NS(=O)(=O)N(Cc1ccccc1)[C@@H](CC(C)C)C(=O)OC	inconclusive: 25.1 µM [inhibitor, full curve]	
CN(Cc1cnc2ccccn12)C1CCN(c2cccc(NC(=O)c3cccnc3)c2)CC1		inactive: -5.71%
CC1=CC2C(C)(C)CC(=O)C[C@]2(C)CC1COc1ccc2c(c1)CC(=O)C=C2 (some centres undefined)	inconclusive: 112 µM [inhibitor, partial curve, poor fit]	
CC(C)C[C@H](CO)N(Cc1ccccc1)S(=O)(=O)N(Cc1ccccc1)[C@@H](CO)CC(C)C	inconclusive: 22.4 µM [inhibitor, full curve]	
CC[C@@H]1OC(=O)[C@@H](C)[C@H](O[C@H]2C[C@@](C)(OC)[C@@H](O)[C@H](C)O2)C(C)[C@H](O[C@H]2O[C@@H](C)C[C@@H](N(C)C)[C@@H]2O)[C@@](C)(O)C[C@H](C)C(=O)[C@@H](C)[C@H](O)[C@@]1(C)O (some centres undefined)	inconclusive: 28.2 µM [inhibitor, partial curve, poor fit]	
CCCCC/C=C\CCC(=O)N[C@H]1[C@H](Oc2c3cc4cc2Oc2ccc(cc2Cl)[C@@H](O[C@@H]2O[C@H](CO)[C@@H](O)[C@H](O)[C@H]2NC(C)=O)[C@@H]2NC(=O)[C@H](NC(=O)[C@@H]4NC(=O)[C@H]4NC(=O)[C@@H](Cc5ccc(c(Cl)c5)O3)NC(=O)[C@H](N)c3ccc(O)c(c3)Oc3cc(O)cc4c3)c3ccc(O)c(c3)-c3c(O[C@H]4O[C@H](CO)[C@@H](O)[C@H](O)[C@@H]4O)cc(O)cc3[C@@H](C(=O)O)NC2=O)O[C@H](CO)[C@@H](O)[C@@H]1O	inconclusive: 50.1 µM [inhibitor, full curve, poor fit]	
COc1cccc(-c2nccc(NCc3ccc(OC)cc3OC)n2)c1	inconclusive: 50.1 µM [inhibitor, single point]	
COC(=O)C1C2CC3c4[nH]c5cc(OC)ccc5c4CCN3CC2CC(OC(=O)c2cc(OC)c(OC)c(OC)c2)C1OC (centres undefined)	inconclusive: 28.2 µM [inhibitor, full curve, poor fit]	
O=c1cc(-c2ccc(O)c(O)c2)oc2cc(O)cc(O)c12	active: 50.1 µM and active: 39.8 µM	
Cc1cc(C(=O)NCc2nnc3n2CCN(Cc2ccc4c(c2)Cc2ccccc2-4)CC3)c(C)o1	inconclusive: 63.1 µM [inhibitor, partial curve, poor fit]	
CC1(C)C(=O)NC2=C1C(=O)C(=O)c1ccccc12	inconclusive: 44.7 µM [inhibitor, partial curve, poor fit]	
CCCCCCCCCCC1=C(C)C(=O)C(OC)=C(OC)C1=O	inconclusive: 112 µM [inhibitor, partial curve, poor fit]	
C=CCCCCCCCCCCCC(O)CC(O)COC(C)=O (centres undefined)	inconclusive: 25.1 µM [inhibitor, full curve, poor fit]	
C=C1C(=O)O[C@@H]2[C@H]3O[C@]3(C)CC/C=C(\C)CC[C@@H]12	inconclusive: 251 µM [inhibitor, single point]	
COc1ccc(-n2c(=O)c(-c3ccc(F)cc3)nc3cnc(N4CCNCC4)nc32)cc1		inactive: 10.7%
CCCCCCCCCCC[C@@H](C[C@@H]1OC(=O)[C@H]1CCCCCC)OC(=O)[C@H](CC(C)C)NC=O	inconclusive: 2.82 µM [inhibitor, full curve, poor fit]	
CC(=O)NC1C(OC2OC(CC(O)C3OC([N+]4=CCC(=O)NC4=O)C(O)C3O)C(O)C(O)C2NC(=O)/C=C/CCCCCCCCC(C)C)OC(CO)C(O)C1O (centres undefined)	inconclusive: 79.4 µM [inhibitor, single point]	
O.O.O.O.O.O.O.O=S(=O)([O-])[O-].[Co+2]	active: 100 µM	
CCCCCCCCCCCCOS(=O)(=O)O	inconclusive: 126 µM [inhibitor, single point]	
COc1cc(OC)c(C(=O)CCCN2CCCC2)c(OC)c1	inconclusive: 22.4 µM [inhibitor, single point]	
C/C1=C2N=C(/C=C3N=C(/C(C)=C4\[N-][C@@](C)([C@@H]5N=C1[C@](C)(CCC(=O)NCC(C)OP(=O)(O)O[C@H]1[C@@H](O)[C@@H](n6cnc7cc(C)c(C)cc76)O[C@@H]1CO)[C@H]5CC(N)=O)[C@@](C)(CC(N)=O)[C@@H]4CCC(N)=O)[C@@](C)(CC(N)=O)[C@@H]\3CCC(N)=O)C(C)(C)[C@@H]/2CCC(N)=O.CC(=O)O.[Co] (some centres undefined)	inconclusive: 50.1 µM [inhibitor, partial curve, poor fit]	

SMILES	Potency	activity change, negative = inhibition
CC(C)(Sc1ccc(CCN(CCCCC2CCCCC2)C(=O)NC2CCCCC2)cc1)C(=O)O	active: 44.7 µM and inconclusive: 39.8 µM [inhibitor, single point]	
CCOC(=O)/C=C1\CN(Cc2cc(OC)c(OC)c(OC)c2)S(=O)(=O)c2ccc(C(F)(F)F)cc21	inconclusive: 56.2 µM [inhibitor, full curve]	
O=C(Nc1cc(C(=O)Nc2ccc(S(=O)(=O)O)cc2S(=O)(=O)O)cc(C(=O)Nc2ccc(S(=O)(=O)O)cc2S(=O)(=O)O)c1)Nc1cc(C(=O)Nc2ccc(S(=O)(=O)O)cc2S(=O)(=O)O)cc(C(=O)Nc2ccc(S(=O)(=O)O)cc2S(=O)(=O)O)c1	active: 15.8 µM	
CC(=O)CC/C=C(\C)CC/C=C(\C)CC/C=C(\C)CCC=C(C)C		inactive: 24.4%
Nc1c(N=Nc2ccc(-c3ccc(N=Nc4cc(S(=O)(=O)O)c5ccccc5c4N)cc3)cc2)cc(S(=O)(=O)O)c2ccccc12	inconclusive: 11.2 µM [inhibitor, full curve, poor fit]	
O=C(c1cnccn1)N1CCC2(CCCN(Cc3nccs3)C2)CC1		inactive: 13.2%
COc1cc2c(CCNC(C)=O)c[nH]c2cc1Cl	inconclusive: 28.2 µM [inhibitor, single point]	
COc1cc(N)c(N)cc1OC		inactive: 22.6%
CC(C)(C)CC(C)(C)c1ccc(O)c(Cc2ccc(Cl)cc2Cl)c1	inconclusive: 44.7 µM [inhibitor, full curve, poor fit]	
CCC(=O)OC1CCC2C3CCc4cc(O)ccc4C3CC[C@]12C (some centres undefined)	inconclusive: 39.8 µM [inhibitor, full curve, poor fit]	
Cc1ccccc1-c1nc(N(C)Cc2ccco2)c2ccccc2n1	inconclusive: 112 µM [inhibitor, partial curve, poor fit]	
O=c1ccc2ccccc2o1	inconclusive: 112 µM [inhibitor, single point]	
COc1cc2c(cc1O)CCN[C@]21CS[C@@H]2c3c(OC(C)=O)c(C)c4c(c3[C@H](COC1=O)N1[C@@H]2[C@H]2c3c(cc(C)c(OC)c3O)C[C@@H]([C@@H]1O)N2C)OCO4	inconclusive: 79.4 µM [inhibitor, single point]	
CC12CCC3c4ccc(OCc5ccccc5)cc4CCC3C1CC(O)C2O (centres undefined)	inconclusive: 56.2 µM [inhibitor, partial curve, poor fit]	
CN1[C@@H]2CC[C@H]1CC(OC(c1ccccc1)c1ccccc1)C2 (some centres undefined)		inconclusive: -136% [inhibitor]
O=c1c(-c2cc(O)c(O)c(O)c2)coc2cc(O)c(O)c(O)c12	inconclusive: 100 µM [inhibitor, partial curve, poor fit]	
CC(C)c1ccc2c(c1)c(SC(C)(C)C)c(CC(C)(C)C(=O)O)n2Cc1ccc(Cl)cc1	inconclusive: 39.8 µM [inhibitor, single point]	
CC(C)CCCC(C)C1CCC2C3CC(O)[C@@]4(O)CC(O)CC[C@@]4(C)C3CC[C@@]12C (some centres undefined)	inconclusive: 44.7 µM [inhibitor, full curve]	
COC(=O)CC1C2(C)CC34OC5(C)O[C@@]6(C7/C(=C(/OC)C(C)C)C(=O)OC(c8ccoc8)[C@@]7(C)C(OC(=O)C(C)C)C(OC)[C@]6(O5)[C@@]13C)C(OC)[C@]4(OC)C2OC(C)=O (some centres undefined)	inconclusive: 20 µM [inhibitor, full curve]	
O=S(=O)(c1ccccc1)N1CCC[C@@]2(CCN(Cc3cc(C(F)(F)F)cc(C(F)(F)F)c3)C2)C1	inconclusive: 35.5 µM [inhibitor, partial curve, poor fit]	
N#CC(C#N)=C(N)/C(C#N)=C/c1cc(O)c(O)c(O)c1	inconclusive: 100 µM [inhibitor, single point]	
C=CS(=O)(=O)N(Cc1ccccc1Br)[C@H](CO)CC(C)C	inconclusive: 35.5 µM [inhibitor, full curve]	
Cc1cccc(/C=C/c2cccs2)n1		inactive: 12.7%
CC[N+](C)(C)c1ccc(/C=C/c2ccncc2)cc1	inconclusive: 56.2 µM [inhibitor, partial curve, poor fit]	
